Measurements: PubChem BioAssay AID1508624 (National Center for Advancing Translational Sciences (NCATS), 2021)
Screen size: about 48,000 compounds; about 120 (0.25%) were called active. About 4% were inconclusive and are not listed. Calls come from the whole dose curve; as a rule, active = well fitted activation curve with a large enough effect; inconclusive = small, poorly fitted or top-dose-only effect, or another doubt; inactive = no such curve, though single readings can be large or run the other way. Some of the results follow.

Assay: Primary qHTS for Identification of Small Molecule Activators of Huntingtin-Antisense Promoter Activity; note: nearly all actives have a fitted effect of over 55% in size
Details: HEK293 HTT-AS promoter firefly luciferase reporter (activity 0% = vehicle and -100% = no light), 24 h; series mostly up to 57.5 µM; activity change, positive = activation: at the top concentration
Procedure, shortened: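 HEK293 Fluc reporter, 2,500 cells/well, 24 h pre-culture; cpds up to 57.5 uM final, 24 h 37 degrees C; Dual-Glo, 10 min RT; normalized vehicle = 0%, zero RLU = -100%.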

Activity change, positive = activation, inactive:
O=c1[nH]c(=O)n([C@H]2C[C@@H](O)[C@@H](CO)O2)cc1F -35.7%, CCCCCN1C(C(=O)c2ccccc2)=C(NC(=O)c2ccc(OC)c(OC)c2)c2ccccc2S1(=O)=O -15.9%, COc1ccc(C)cc1NC(=O)CSc1nc(=O)n(Cc2cccnc2)c2c1CCC2 -25.9%, COC(=O)c1ccccc1NC(=O)CSc1cc(-c2ccccc2)nc(C)n1 -22.8%, COc1ccc(NC(=O)N2CCC(CN3CCCC3)CC2)c(OC)c1 -2.88%, O=C(CCn1c(=O)c2cccn2c2ccc(F)cc21)NCCc1ccc(Cl)cc1 -14.8%, O=C(C1CCCN(S(=O)(=O)c2cccc3nonc23)C1)N1CCN(c2ccccc2F)CC1 (centres undefined) -22.4%, Clc1ccc(-c2ccc(CNCCSc3nnnn3-c3ccccc3)o2)cc1 0.27%, CCN1CCN(c2oc(-c3ccc(COc4ccc(OC)cc4)o3)nc2C#N)CC1 -19.8%, CC(C)(C)OC(=O)N1CCC(c2c(C(=O)NCCN3CCOCC3)cnn2-c2cccc(F)c2)CC1 -4.39%, CC(=O)c1ccc(N2C(=O)N(Cc3ccc(F)cc3)c3ccccc3S2(=O)=O)cc1 -31.1%, COc1ccc(C2(CNC(=O)C(=O)Nc3ccc(C)c(Cl)c3)CCCC2)cc1OC 5.81%, COc1c(C)c2c(c(O)c1C/C=C(\C)CCC(=O)O)C(=O)OC2 -31.5%, CCN(CC)S(=O)(=O)c1nnc(NC(=O)COc2ccccc2)s1 -3.62%, Clc1cccc(-n2ncc3c(NCCC4=CCCCC4)ncnc32)c1 12.4%, COc1ccc(OC)c(C(=O)CN2C(=O)N(c3cc(C)cc(C)c3)S(=O)(=O)c3ccccc32)c1 -22.6%, Cc1ccc(S(=O)(=O)c2cn(C)c3cc(N4CCOCC4)c(F)cc3c2=O)c(C)c1 -17.4%, COc1ccc(N2CCN(c3ncnc4c3nc3n4CCCCC3)CC2)cc1 -55.4%, Oc1c(C(c2ccc(F)cc2)N2CCCC2)sc2nc(-c3ccco3)nn12 (centres undefined) -7.83%, Cc1ccc(CCNC(=O)C2COc3ccccc3C2)cc1 (centres undefined) 23.2%, O=C(Oc1ccccc1C(=O)O)c1ccccc1O -2.1%, Cc1ccc(Cl)cc1-n1c(=O)c2sc3ccccc3c2n(CC(=O)NC2CCCC2)c1=O -22.3%, Cc1ccc2c(c1)-c1onc(C(=O)N3CCN(c4cc(C)ccc4C)CC3)c1CO2 -7.82%, O=C(O)c1ccc(S(=O)(=O)N(Cl)Cl)cc1 -0.253%, Cc1cc(C)n(-c2nc3cc(Cl)ccc3nc2N2CCN(c3cccc(C)c3C)CC2)n1 -10.2%, COc1ccccc1CNS(=O)(=O)c1c(C(=O)N2CCC(C)CC2)c(C)n(C)c1C -15.3%, Cc1ccc(CCNC(=O)Cn2ncc3c([nH]c4ccccc43)c2=O)cc1 -10.1%, COc1ccc(CC(=O)Nc2c(C(=O)N3CCN(c4ccccc4F)CC3)oc3ccccc23)cc1OC -29.2%, COc1ccc(-c2nc3ccccc3o2)cc1NC(=O)c1ccc(-c2ccc(C)c(Cl)c2)o1 -8.45%, CCN(C(=O)c1cc2c(=O)oc3ccccc3c2s1)c1cccc(C(F)(F)F)c1 -22.2%, Cc1ccc(Nc2c(-c3ccco3)nc3ccc(C)cn23)cc1 -8.41%, CCOc1ccc(OCC)c(Nc2nc3ccccc3n3nnnc23)c1 -8.67%, O=C(CN1C=NS(=O)(=O)c2ccccc21)Nc1ccc(Br)cc1 -5.16%, Cc1ccccc1CNC(=O)CCCn1ncn2c(cc3occc32)c1=O -8.21%, O=C1C2=C(Nc3ccccc3SC2c2ccc(C(F)(F)F)cc2)c2ccccc21 (centres undefined) -38.8%, COc1ccc(NC(=O)CSC2=Nc3ccccc3C3=NC(Cc4ccccc4)C(=O)N23)cc1 (centres undefined) 3.54%, COCCNC(=O)c1ccc2c(c1)NC(=O)C(CS(=O)(=O)Cc1ccc(F)cc1Cl)N2 (centres undefined) -6.91%, COc1ccc(NC(=O)c2c(NC(=O)c3cccc(C)c3)sc3c2CCC3)cc1 -2.2%, COc1cccc(CNC(=O)c2ccc3oc(=O)n(Cc4ccccc4)c3c2)c1 -22.7%, NS(=O)(=O)c1cc(Cl)c(Cl)c(S(N)(=O)=O)c1 -8.56%, Cc1ccc(NC(=O)CSc2nnc(C)s2)c(C)c1 -11.4%, COc1ccc(NC(=O)C2CCN(c3nc4ccccc4[nH]3)CC2)cc1OC -11.4%, CCCCN1C(=O)C(NC(=O)c2ccc(C(C)(C)C)cc2)(C(F)(F)F)C(C(=O)OC)=C1C (centres undefined) -21.1%, Cc1cc(O)c(C(c2ccc(F)cc2)N2CCN(c3ccccc3)CC2)c(=O)n1Cc1ccco1 (centres undefined) 8.37%, CS(=O)(=O)c1ccc(-c2cnc(N)c(C(=O)Nc3ccccc3)n2)cc1 -17.6%, CC(NC(=O)c1cccc(Nc2nc3ccccc3n3nnnc23)c1)c1ccccc1 (centres undefined) -11.2%, O=C(CSc1nc2c(c(=O)[nH]1)CCC2)Nc1cccc(O)c1 1.27%, CCn1c(=O)c2sccc2n2c(CCCC(=O)Nc3ccc(C)cc3)nnc12 1.44%, COc1cc(NC(=O)c2c(C)nn(-c3ccc(F)cc3)c2-n2cccc2)cc(OC)c1 -1.37%, COc1ccc(-n2nnnc2C2CCN(S(=O)(=O)c3cc(Cl)ccc3OC)CC2)cc1 -36.8%, Cc1ccc(N2CCN(c3ncnc4onc(-c5ccc(F)cc5)c34)CC2)c(C)c1 -12.5%, Cc1ccc(S(=O)(=O)NCCc2nnc3ccc(SCc4cccc(F)c4)nn23)cc1 -17.1%, COc1cc(-c2cc3n(C)c(C)c(CCC(=O)Nc4ccc(F)cc4)c(=O)n3n2)cc(OC)c1OC -7.63%, CCN1CCCC(OC(=O)C(c2ccccc2)c2ccccc2)C1 (centres undefined) -14.5%, COc1ccc(Cn2c(=O)c3oc4ccccc4c3n(Cc3ccccc3)c2=O)cc1 0.184%, CCOC(=O)c1[nH]c(C)c(CCC(=O)NCc2cccc(Cl)c2)c1C -11.1%, O=C(CSc1c2c(nc3ccccc13)CCC2)Nc1ccc(F)cc1F -5.11%, Nc1ccc(C(=O)O)cc1 2.61%, Cc1ccnc(NS(=O)(=O)c2ccc(NC(=O)Nc3ccc(S(=O)(=O)Nc4nccc(C)n4)cc3)cc2)n1 19.1%, COC(=O)c1ccc([C@@H]2Nc3c(cccc3C(F)(F)F)[C@@H]3C=CC[C@@H]32)cc1 -7.85%, Cc1ccccc1CN1C(=O)c2ccccc2Sc2ccc(C(=O)N3CCOCC3)cc21 -14.8%, COc1ccccc1-c1c(C(F)(F)F)oc2c(CN3CCCCC3C)c(O)ccc2c1=O (centres undefined) -8.62%, CCN1C(=O)c2ccccc2S(=O)c2ccc(C(=O)N3CCN(c4ccc(F)cc4)CC3)cc21 (centres undefined) -29.6%, Cc1cccc(-c2nc(-c3ccc4c(c3)[nH]c(=O)n4C)no2)c1 13.6%, O=C(Nc1ccc2oc(-c3cccc4c(Br)cccc34)nc2c1)c1ccc(Br)cc1 -4.82%, Cc1cc(F)ccc1NC(=O)CCS(=O)(=O)c1cccc2nsnc12 -8.3%, CCCN(CCC)CCCNC(=O)c1cc2c(-c3ccc(Cl)cc3)nn(C)c2s1 -12.6%, Cc1cccc(NC(=O)CSc2nc3c(oc4ccccc43)c(=O)n2-c2ccccc2)c1C -17.4%, Cc1ccc(S(=O)(=O)N2CCC(C(=O)Nc3cc(C)ccc3C)CC2)cc1 -9.88%, O=C(CC(c1cccs1)N1Cc2ccccc2C1=O)Nc1ccccc1F (centres undefined) -30.3%, Cc1ccc(NC(=O)CN2C(=O)CSc3ccc(S(=O)(=O)N(C)C)cc32)cc1C -4.06%, COC(=O)c1cc2occc2n1Cc1ccc(F)cc1Cl -5.2%, Cc1ccc(CSC2=Nc3ccccc3C3=NC(CCC(=O)NCCc4ccccc4)C(=O)N23)cc1 (centres undefined) -6.3%, Cc1ccc(-c2nn(CCC(=O)Nc3ccc(Cl)c(Cl)c3)c(=O)c3ccccc23)cc1 -29.1%, COc1ccc(-c2nc(S(=O)(=O)c3ccc(Cl)cc3)c(N3CCCCCC3)o2)cc1 -9.07%, Cc1ccc(C(=O)NCCSc2c(C)[nH]c3ccccc23)cc1C -33.1%, CCOc1cc(C2C(C(N)=O)=C(C)Nc3ncnn32)cc(Br)c1O (centres undefined) -10.5%, Nc1nc2nc(-c3ccc(Cl)cc3)cc(C(F)(F)F)n2n1 -5.7%, Cc1ccc(NC(=O)CSc2nc3c(c(=O)[nH]2)CN(Cc2ccccc2)CC3)cc1Cl 0%, CC(=O)N1c2ccccc2C(=O)C1N1CCN(c2cccc(C)c2C)CC1 (centres undefined) -11.2%, Nc1nonc1-c1nc2ccccc2n1Cc1ccc(Br)cc1 -15.5%, CC(C)(Oc1ccc(Cl)cc1)C(=O)Nc1cccc(-c2cn3cccnc3n2)c1 -1.87%, CC(CNC(=O)c1sc2ncccc2c1-n1cccc1)c1ccccc1 (centres undefined) -18%, Cc1ccc(NC(=O)C2=CC(c3cccs3)=NS(=O)(=O)N2C)cc1 -16.8%, COc1ccccc1-c1nnc(SCC(=O)c2ccc(F)cc2)n1-c1ccccc1 -12.5%, CCc1ccc(CNC(=O)CN2C(=O)CCn3nc(-c4cn(C)c5ccccc45)cc32)cc1 -15.2%, O=C(Nc1cccc(Cl)c1)C1CCCN1S(=O)(=O)c1cccc2cccnc12 (centres undefined) -25.8%, Cn1nnnc1SCCNCc1ccc(OCc2ccc(Cl)cc2)cc1 -2.41%, CC(C)(C)c1nc(-c2cccc(NS(=O)(=O)c3c(F)cccc3F)c2F)c(-c2ccnc(N)n2)s1 -29.6%, Cc1cc(Cl)ccc1OCc1cc(=O)n2c3c(sc2n1)CCCC3 -3.53%, Cc1ccc(CN2C(=O)c3ccccc3Sc3ccc(C(=O)NCCCN4CCOCC4)cc32)cc1 -34.6%, Cc1oc(-c2cccc(Cl)c2)nc1CN1CCC(C(=O)NCCc2ccc(Cl)cc2)CC1 -14.9%, COc1cccc(OCC(=O)Nc2nnc3n2CCS3)c1 -3.45%, CCc1ccc(C2=C(C)C(N3CCC(C(=O)NCCc4ccco4)CC3)=NS2(=O)=O)cc1 -17.1%, COc1ccc(C(=O)Nc2ccc(N3CCOCC3)c(C(F)(F)F)c2)cc1OC -37%, Cc1cccc(NC(=O)CSc2nc(=O)n(Cc3cccnc3)c3c2CCC3)c1C -12.2%, COc1cccc2c1CCCC2CCCN1CCN(C2CCCCC2)CC1 (centres undefined) -22.6%, Cc1cc(OCC(=O)NCC2(N3CCOCC3)CCCCC2)ccc1Cl -25.3%, CCc1cccc(NC(=O)C(CC(C)C)NS(=O)(=O)c2ccc3c(c2)oc(=O)n3C)c1 (centres undefined) -35.2%
